Measurements from publication PMC6325244.
No constants are given. Whether binding was seen depends on the method and setting. Binding seen in cells or lysates may run through a third protein. Some binding calls cover weakened binding; strength is not graded here. Where a sequence is shown, tags or fusion partners need not be part of it.

Target: T1, HisFtsW (E. coli) (UniProt P0ABG4)
T1 sequence: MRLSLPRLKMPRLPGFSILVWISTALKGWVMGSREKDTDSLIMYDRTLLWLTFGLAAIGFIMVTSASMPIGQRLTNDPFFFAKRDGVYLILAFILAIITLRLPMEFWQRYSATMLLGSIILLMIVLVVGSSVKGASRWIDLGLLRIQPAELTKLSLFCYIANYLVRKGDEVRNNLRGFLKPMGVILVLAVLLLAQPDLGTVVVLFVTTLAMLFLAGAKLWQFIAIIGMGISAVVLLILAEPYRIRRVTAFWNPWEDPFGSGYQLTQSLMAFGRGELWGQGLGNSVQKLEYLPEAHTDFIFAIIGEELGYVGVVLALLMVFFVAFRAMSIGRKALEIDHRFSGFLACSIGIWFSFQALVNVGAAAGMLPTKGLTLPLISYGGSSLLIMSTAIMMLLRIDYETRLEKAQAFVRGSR
Test: pull-down; coexpression from compatible Duet vectors in E. coli, complexes extracted from membranes with detergent, affinity copurification on a HisTrap/Ni column with one His-tagged protein as bait; eluate labeled with fluorescent ampicillin when PBPs were present, SDS-PAGE, fluorescence imaging, Coomassie staining, immunoblot

## StrepFtsBLQ complex (Strep-FtsB, FtsL, FtsQ) (from UniProt P0A6S5 1-103; P0AEN4 1-121; P06136 1-276)
  binding: binds
